According to article PMC4336329 (PLoS ONE, 2015):
Hit rate of the full screen: of about 310,000 compounds, about 2,200 (0.71%) showed an effect of 50% or more. The effect is printed as a negative number. The list shows a part of the results.

The compounds below were run against human ether-à-go-go-related gene (hERG) potassium channel (human, UniProt Q12809) (assay: primary screen, population patch clamp on CHO cells stably expressing hERG).
Chain of human ether-à-go-go-related gene (hERG) potassium channel (Q12809 whole entry, looked up): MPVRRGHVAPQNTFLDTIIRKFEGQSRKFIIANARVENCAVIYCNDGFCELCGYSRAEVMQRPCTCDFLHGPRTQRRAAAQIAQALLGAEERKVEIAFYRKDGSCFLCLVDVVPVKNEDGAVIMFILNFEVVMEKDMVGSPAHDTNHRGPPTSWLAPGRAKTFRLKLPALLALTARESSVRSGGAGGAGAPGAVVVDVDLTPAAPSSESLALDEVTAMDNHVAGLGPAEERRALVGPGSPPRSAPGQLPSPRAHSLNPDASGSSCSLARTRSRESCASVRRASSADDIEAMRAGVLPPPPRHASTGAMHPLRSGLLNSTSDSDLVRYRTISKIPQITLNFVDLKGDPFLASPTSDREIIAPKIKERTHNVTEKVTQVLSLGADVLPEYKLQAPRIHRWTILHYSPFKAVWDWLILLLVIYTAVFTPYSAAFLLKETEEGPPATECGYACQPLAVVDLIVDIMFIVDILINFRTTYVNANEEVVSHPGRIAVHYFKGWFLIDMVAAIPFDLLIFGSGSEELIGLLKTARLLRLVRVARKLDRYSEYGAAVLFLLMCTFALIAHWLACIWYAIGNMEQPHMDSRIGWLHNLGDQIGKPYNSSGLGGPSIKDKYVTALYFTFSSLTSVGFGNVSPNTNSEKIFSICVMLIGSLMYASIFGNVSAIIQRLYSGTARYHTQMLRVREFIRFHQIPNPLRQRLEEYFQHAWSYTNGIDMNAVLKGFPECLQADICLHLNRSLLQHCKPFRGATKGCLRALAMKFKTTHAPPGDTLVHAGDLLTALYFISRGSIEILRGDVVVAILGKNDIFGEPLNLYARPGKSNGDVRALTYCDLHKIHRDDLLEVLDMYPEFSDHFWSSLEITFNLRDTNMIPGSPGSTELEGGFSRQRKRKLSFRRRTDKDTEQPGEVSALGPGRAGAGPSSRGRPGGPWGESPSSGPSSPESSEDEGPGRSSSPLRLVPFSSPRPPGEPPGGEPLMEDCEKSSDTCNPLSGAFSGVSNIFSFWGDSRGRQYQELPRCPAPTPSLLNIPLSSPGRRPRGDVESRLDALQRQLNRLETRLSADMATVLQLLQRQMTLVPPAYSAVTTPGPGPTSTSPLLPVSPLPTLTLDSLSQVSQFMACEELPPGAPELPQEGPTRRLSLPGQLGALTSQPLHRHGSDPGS
For `COCc1cc(=O)[nH]c2c1c(-c1ccccc1)nn2C`, the “hERG current change (%, negative = inhibition) at 1uM” value was 13.8%. For `Cc1cc(=O)n2nc(N3CCCC3C(=O)Nc3ccccc3C)sc2n1` (stereo not drawn), the “hERG current change (%, negative = inhibition) at 1uM” value was 13.4%. For `c1cnc2ccc(C(c3nnnn3C3CCCCC3)N3CCN4CCCC4C3)cc2c1` (stereo not drawn), the “hERG current change (%, negative = inhibition) at 1uM” value was -96.9%. For `Cc1ccc(OCC(=O)Nc2c(C)ccc3nsnc23)cc1`, the “hERG current change (%, negative = inhibition) at 1uM” value was 3.02%. With `CCC(C)N(C(=O)COC(=O)CNC(=O)c1ccccc1F)C1CCS(=O)(=O)C1` (stereo not drawn) the “hERG current change (%, negative = inhibition) at 1uM” value was 4.27%. For `c1ccc(-c2cn3cccnc3n2)cc1`, the “hERG current change (%, negative = inhibition) at 1uM” value was 12.4%. In the case of `COc1ccc(-n2nnnc2CNC(=O)c2ccc3c(c2)OCO3)cc1`, the “hERG current change (%, negative = inhibition) at 1uM” value is reported as 14.1%. `COc1ccc2c(C)cc(C)nc2n1` was tested, and the “hERG current change (%, negative = inhibition) at 1uM” value was 5.1%. `O=C(O)c1cc(N2C(=O)C3C4C=CC(C4)C3C2=O)ccc1NCc1cccnc1` (stereo not drawn) was tested, and the “hERG current change (%, negative = inhibition) at 1uM” value was 8.78%. For `COC(=O)c1ccccc1C(=O)N1CCC(CCC(=O)NC2CC2)CC1`, the “hERG current change (%, negative = inhibition) at 1uM” value was 13.2%. With `CN(C(=O)CN1C(=O)/C(=C/c2ccccc2F)SC1=S)C1CCS(=O)(=O)C1` (stereo not drawn) the “hERG current change (%, negative = inhibition) at 1uM” value was 22.6%. For `CCOc1ccc(N(C)S(=O)(=O)c2ccc(C)c(C(=O)NCc3ccccc3OC)c2)cc1`, the “hERG current change (%, negative = inhibition) at 1uM” value was 4.67%. For `CCCCNC(C(=O)Nc1cccc(S(=O)(=O)N2CCOCC2)c1)c1ccccc1` (stereo not drawn), the “hERG current change (%, negative = inhibition) at 1uM” value was -4.85%. In the case of `COc1ccc(S(=O)(=O)Nc2ncccc2C)c2ccccc12`, the “hERG current change (%, negative = inhibition) at 1uM” value is reported as 14.6%. In the case of `Cc1ccc(S(=O)(=O)NCC(=O)N(CC(=O)NCC2CCCO2)c2cccc(F)c2)cc1` (stereo not drawn), the “hERG current change (%, negative = inhibition) at 1uM” value is reported as 11.9%. With `O=C(COc1ccc(Br)cc1Br)NC(=S)N1CCCc2ccccc21` the “hERG current change (%, negative = inhibition) at 1uM” value was 6.53%. In the case of `CCC1(C)Cc2c(sc3nc(SC)n(Cc4ccccc4)c(=O)c23)CO1` (stereo not drawn), the “hERG current change (%, negative = inhibition) at 1uM” value is reported as 8.55%. In the case of `COc1ccc(C(=O)CSc2nnc(-c3cccnc3)n2Cc2ccco2)cc1`, the “hERG current change (%, negative = inhibition) at 1uM” value is reported as 1.92%. In the case of `CC(=O)Nc1ccc(NC(=O)c2ccc(C)c(S(=O)(=O)Nc3cccc(C)c3)c2)cc1`, the “hERG current change (%, negative = inhibition) at 1uM” value is reported as 6.13%. For `COc1cccc(C(=O)N2CCn3c2nc2ccccc23)c1`, the “hERG current change (%, negative = inhibition) at 1uM” value was 1.36%. With `COC(=O)c1[nH]c2ccccc2c1Sc1ccccc1` the “hERG current change (%, negative = inhibition) at 1uM” value was 12.7%. With `O=C(Nc1cccc2c1CCCC2)c1ccccc1F` the “hERG current change (%, negative = inhibition) at 1uM” value was 18.1%. In the case of `COc1ncnc2c1oc1nc(CC(C)C)c3c(c12)CC(C)(C)OC3`, the “hERG current change (%, negative = inhibition) at 1uM” value is reported as -10.6%. For `O=C(CCN1CCOCC1)Nc1cccc(Br)c1`, the “hERG current change (%, negative = inhibition) at 1uM” value was 11.9%. `CCN(C1CCCCC1)S(=O)(=O)CCNC(=O)c1ccc2c(c1)OCO2` was tested, and the “hERG current change (%, negative = inhibition) at 1uM” value was 15.2%. In the case of `COc1cc(C(CCN2CCCCC2)c2c(OC)cc(OC)c3c(-c4ccccc4)cc(=O)oc23)cc(OC)c1OC` (stereo not drawn), the “hERG current change (%, negative = inhibition) at 1uM” value is reported as -12%. `Cn1c(SCC(=O)NC2CC2)nnc1-c1ccccc1` was tested, and the “hERG current change (%, negative = inhibition) at 1uM” value was 6.86%. `COc1cccc(-c2noc(C3CCCN(C(=O)c4ccc(F)cc4F)C3)n2)c1` (stereo not drawn) was tested, and the “hERG current change (%, negative = inhibition) at 1uM” value was -24.5%. `CCOc1cc(C)c(S(=O)(=O)N2CCCCC2)cc1C` was tested, and the “hERG current change (%, negative = inhibition) at 1uM” value was 12.2%. With `CSc1ccc(CN2CCC(n3nccc3NC(=O)C3CCOC3)CC2)cc1` (stereo not drawn) the “hERG current change (%, negative = inhibition) at 1uM” value was -22.8%. In the case of `O=C(NC(=S)Nc1ccccc1N1CCOCC1)c1ccccc1F`, the “hERG current change (%, negative = inhibition) at 1uM” value is reported as 13.9%. For `Cc1ccc(-c2nc(SCC(=O)NCC3CCCO3)c(-c3ccccc3)[nH]2)cc1` (stereo not drawn), the “hERG current change (%, negative = inhibition) at 1uM” value was 6.98%. For `COC(=O)c1ccc(OC(=O)/C=C/c2ccco2)cc1`, the “hERG current change (%, negative = inhibition) at 1uM” value was 15.9%. For `OC1(c2cccs2)CN(c2ccc(Br)cc2)C2=[N+]1CCCS2.[Br-]` (stereo not drawn), the “hERG current change (%, negative = inhibition) at 1uM” value was -39.5%. In the case of `CC(=O)c1c(C)[nH]c(C(=O)N(CCc2ccccc2)Cc2ccccc2)c1C`, the “hERG current change (%, negative = inhibition) at 1uM” value is reported as 2.22%. `CN1CC(C(=O)Nc2ccc(F)c(Cl)c2)CC1=O` (stereo not drawn) was tested, and the “hERG current change (%, negative = inhibition) at 1uM” value was 18.2%. `CC(=O)Nc1ccc(S(=O)(=O)N(C)C2CCN(C)CC2)cc1` was tested, and the “hERG current change (%, negative = inhibition) at 1uM” value was 16.8%. For `O=C(NCc1cccc(F)c1)C1CCN(C(=O)c2sccc2-n2cccc2)CC1`, the “hERG current change (%, negative = inhibition) at 1uM” value was 0.676%. In the case of `O=C(NCCN1CCOCC1)c1cccn2c(=O)c3c4c(sc3nc12)CCCC4`, the “hERG current change (%, negative = inhibition) at 1uM” value is reported as 12.7%. For `O=C(CN1CCN(c2ccccc2)CC1)N1CCN(c2ccccc2)CC1`, the “hERG current change (%, negative = inhibition) at 1uM” value was -14.1%. In the case of `O=C1c2oc3ccccc3c(=O)c2C(c2cccnc2)N1Cc1ccco1` (stereo not drawn), the “hERG current change (%, negative = inhibition) at 1uM” value is reported as 1.1%. `C1CCCN(C2CCNCC2)CC1.Cl` was tested, and the “hERG current change (%, negative = inhibition) at 1uM” value was 18.4%. With `COCCOC1CCN(C(=O)C2CCC(=O)N(CCc3ccc(OC)cc3)C2)CC1` (stereo not drawn) the “hERG current change (%, negative = inhibition) at 1uM” value was 45.2%. `O=C(c1ccc(CS(=O)(=O)c2ccc(Br)cc2)o1)N1CCCCCC1` was tested, and the “hERG current change (%, negative = inhibition) at 1uM” value was -2.04%. `Cc1ccnc(NC(=O)c2ccc(Cl)c(NC(=O)C(C)Oc3ccccc3)c2)c1` (stereo not drawn) was tested, and the “hERG current change (%, negative = inhibition) at 1uM” value was 7.95%.
